# PubChem BioAssay AID463173 (ICCB-Longwood Screening Facility, Harvard Medical School, 2010)
# Screen size: about 52,000 compounds; about 4,300 (8.3%) were called active. Cut-off read from the data, not from the text of the source: active = survival mostly below about 52% (no sharp cut-off); inactive = mostly above about 56%. The list shows a part of the results.
# Tested on: DeltatarO mutant
# Assay: S. aureus survival, RN4220 and DeltatarO strains – OD600, teichoic acid synthesis inhibitors, primary screen (AID 463173)
# Conditions: S. aureus RN4220 wild type/DeltatarO growth, OD600, 18 h, active compounds read low, screened at 18.75 µg/mL (by protocol)
row,Compound,survival
1,CCCCN1CC(c2nc3ccccc3n2CCCCOc2cccc(C)c2C)CC1=O (configuration not stated),active: 2%
2,COc1ccc(CC(=O)Nc2ccc(-c3nc4ccccc4s3)c(C)c2)cc1OC,active: 37%
3,COc1ccc(-c2cc(C(F)(F)F)nc(NCCc3ccccc3)n2)cc1OC,inactive: 63%
4,Cc1csc2nc(COC(=O)c3ccccc3NC(=O)c3ccc(C(C)(C)C)cc3)cc(=O)n12,inactive: 81%
5,O=C(CCCn1c(=O)c2cccn2c2ccccc21)NCCc1ccc(Cl)cc1,active: 32%
6,CSc1nn(Cc2ccc(C)cc2)c(N)c1S(=O)(=O)c1ccccc1,inactive: 63%
7,COC(=O)c1cc(-c2ccc(C)cc2)c2c(=O)n(C)c(=O)n(C)c2n1,inactive: 107%
8,Cc1nc(-c2ccc(F)cc2)sc1CCNC(=O)C(=O)Nc1ccc2c(c1)OCCO2,inactive: 85%
9,OCCN(CCO)c1ncnc2c1cnn2-c1ccc(F)cc1,active: 6%
10,Nc1ncnc2nc(SCCO)[nH]c12,active: 63%
11,COc1ccccc1C(=O)Oc1ccc(C(c2c(C)[nH][nH]c2=O)c2c(C)[nH][nH]c2=O)cc1,inactive: 68%
12,O=C(Nc1nncs1)Oc1ccccc1,inactive: 90%
13,Cc1cccc(-n2nc(C)c(C(=O)Nc3cc(C)ccc3C)c2-n2cccc2)c1,inactive: 102%
14,Cc1ccc(-n2c(SCc3ccccc3)nc3c([nH]c4ccccc43)c2=O)cc1,inactive: 88%
15,Cc1c(CC(=O)NCc2ccc(F)cc2)c(=O)oc2cc(O)c(Cl)cc12,inactive: 65%
16,COc1ccc(NC(=O)CC2NCCNC2=O)c(OC)c1 (configuration not stated),inactive: 77%
17,CCOc1cccc2sc(N(Cc3cccnc3)C(=O)c3ccc(C#N)cc3)nc12,inactive: 97%
18,CCOC(=O)c1c(NC(=O)C2c3ccccc3Oc3ccccc32)sc(C)c1C,active: 12%
19,CCOc1ccc(C(=O)OC(C)CN2CCCCC2)cc1 (configuration not stated),inactive: 96%
20,O=C(NCc1ccccc1Cl)c1ccc2oc(=O)n(Cc3ccccc3)c2c1,inactive: 72%
21,CC1CCN(c2nc3ccc(C(=O)NCc4ccccc4)cc3s2)CC1,inactive: 77%
22,COc1ccc(Cn2c(SCc3ccc(C(=O)NC(C)c4ccccc4)cc3)nc3cccnc32)cc1 (configuration not stated),inactive: 76%
23,CCC1(C)Cc2c(sc3nc(SC)n(-c4ccc(C)cc4)c(=O)c23)CO1 (configuration not stated),active: 33%

row,Compound,survival
1,Cc1nnc(NC(=O)c2ccccc2)s1,inactive: 71%
2,CCN(CC)C(=O)O[n+]1ccccc1C(C)C,inactive: 109%
3,Nc1nc(-c2ccco2)nn1S(=O)(=O)c1ccccc1,inactive: 84%
4,Cc1cc(NC(=O)CCNS(=O)(=O)c2cccc3nsnc23)ccc1Br,inactive: 102%
5,Cc1ccc(NC(=O)c2ccccc2Br)c(C(=O)c2ccccc2)c1,active: 26%
6,O=C(Nc1ccc(Cl)cc1)C(NS(=O)(=O)c1cccs1)c1ccccc1 (configuration not stated),active: 19%
7,Cc1cccc(OCC(=O)Nc2nnc(S(=O)(=O)N3CCc4ccccc43)s2)c1,active: 16%
8,COCc1nnc(NC(C)=O)s1,inactive: 99%
9,CCOC(=O)C1CCCN(Cc2cn3c(-c4cccc(Br)c4)nnc3s2)C1 (configuration not stated),inactive: 64%
10,Cc1ccc(-n2c(Cc3ccccc3)nnc2SCc2nc(-c3cccs3)no2)cc1C,inactive: 66%
11,CCOC(=O)CNC(=O)N1CCN(c2nnc(C)c3c(C)n(-c4ccc(Cl)cc4)nc23)CC1,inactive: 87%
12,COc1cc(NC(=O)CCCOc2cc(=O)n(C)c3ccccc23)cc(OC)c1OC,inactive: 77%
13,COc1ccc(OC)c(NC(=O)Cn2c(=O)cc(-c3ccccc3)c3c(C)nn(C)c32)c1,inactive: 94%
14,CCc1ccc(S(=O)(=O)c2nnn3c2nc(Nc2ccc(NC(C)=O)cc2)c2sccc23)cc1,inactive: 61%
15,CCOc1ccc(N(Cc2ccccc2)C(=O)c2nc(S(C)(=O)=O)ncc2Cl)cc1,active: 24%
16,Cc1cccc(N2CCN(C(=O)CS(=O)(=O)Cc3nc(-c4ccccc4C)oc3C)CC2C)c1 (configuration not stated),inactive: 55%
17,O=S(=O)(NCc1nc2cccnc2n1Cc1ccccc1Cl)c1ccc(F)c(Cl)c1,inactive: 87%
18,CC(=O)c1c(C)oc2c1cc(NS(=O)(=O)c1ccc(Cl)c(C)c1)c1ccccc12,inactive: 70%
19,Cc1cccc(C(=O)N=Nc2c(O)[nH]c3ccc(C)cc23)c1,inactive: 78%
20,Cc1ccc(-c2nc(CCNC(=O)C(=O)Nc3ccc(C)c(C)c3)cs2)cc1,active: 20%
21,Cc1ccc(C)n1-c1nnc(N2CCC(C(=O)NCc3ccccc3Cl)CC2)s1,inactive: 95%
22,CCC(c1nnnn1Cc1ccccc1)N1CCN(c2cccc(C)c2C)CC1 (configuration not stated),inactive: 105%
23,COc1ccc(S(=O)(=O)N(Cc2nc(-c3ccc(C)cc3)no2)C2CCCCC2)cc1,inactive: 63%

row,Compound,survival
1,CCc1ccc(-n2c(=O)c3c4c(sc3n(Cc3ccc(F)cc3)c2=O)CCCC4)cc1,inactive: 42%
2,COc1ccc(CNC(=O)c2cccc(N3CCCS3(=O)=O)c2)cc1,inactive: 83%
3,O=C1[C@@H]2CSC(c3ccc(F)cc3)N2C(=O)N1c1ccc(Cl)cc1 (some centres not stated),inactive: 76%
4,O=C(Cn1c(=O)n2nc(-c3ccccc3)nc2c2ccccc21)Nc1ccccc1C(F)(F)F,inactive: 86%
5,COc1cccc(C(=O)N2CC(C)OC(C)C2)c1 (configuration not stated),inactive: 65%
6,Cc1ccc2oc(=O)c3cnn(CC(=O)NCc4ccccc4Cl)c3c2c1,inactive: 73%
7,Cc1ccc(N2CCN(c3nc4ccc(C)cc4n4nnnc34)CC2)c(C)c1,inactive: 87%
8,Cc1ccc(NC2=C(c3ccc(C(F)(F)F)cc3)C(=O)c3ccccc32)cc1F,active: 28%
9,CCOc1ccccc1NC(=O)CSc1nc2ccccc2c2nc(CCn3cncc3C)nn12,inactive: 99%
10,O=C(NCC(c1cccnc1)N1CCc2ccccc21)c1ccccc1Br (configuration not stated),inactive: 56%
11,CCCN(CCC)C(=O)Cn1c(=O)n(-c2cccc(C(F)(F)F)c2)c(=O)c2c(C)c(C)sc21,inactive: 44%
12,O=C(Cn1c(=O)n(Cc2ccco2)c(=O)c2cccnc21)Nc1ccccc1F,inactive: 88%
13,O=C(Nc1ccc2nc(SCC(=O)N3CCCC3)sc2c1)c1ccccc1,inactive: 83%
14,CCOc1cc(C(=O)Nc2ccc(-c3nc4cc(C)ccc4o3)cc2)cc(OCC)c1OCC,active: 27%
15,COc1cc2c(-c3ccccc3C)nc3c(c(C)nn3-c3ccccc3)c2cc1OC,active: 35%
16,CCCCC12CN3CC(C)(CN(C1)C3c1cc(Br)ccc1O)C2=O (configuration not stated),inactive: 72%
17,COc1ccc(NC(=O)c2ccc3nc(CCc4ccccc4)oc3c2)cc1,inactive: 106%
18,CCOC(=O)CNC(=O)Nc1cc(C(=O)NCc2cccc(F)c2)ccc1N1CCCC1,inactive: 74%
19,COc1ccc(NC(=O)C(NC(=O)c2ccccc2NC(=O)c2ccco2)C(C)C)cc1 (configuration not stated),inactive: 83%
20,CS(=O)(=O)c1ccc2nc(NC(=O)CS(=O)(=O)c3ccc(Cl)cc3)sc2c1,inactive: 77%
21,COc1ccccc1NC(=O)C1CCCN(c2nnc(C)c3c(C)n(-c4ccccc4)nc23)C1 (configuration not stated),inactive: 84%
22,Cc1csc2nc(COC(=O)c3ccc(NC(=O)COc4ccccc4F)cc3)cc(=O)n12,inactive: 130%
23,CC1=C(C(=O)OCC2CCCCC2)C(c2ccc(F)cc2F)CC(=O)N1 (configuration not stated),inactive: 90%

row,Compound,survival
1,COc1ccccc1CNC(=O)C(=O)NCC(c1cccs1)S(=O)(=O)c1ccc(F)cc1 (configuration not stated),inactive: 80%
2,Cc1ccc(CNC(=O)C2CCN(S(=O)(=O)N3CCC(C)CC3)CC2)cc1,inactive: 91%
3,Oc1c(C(c2ccccc2)N2CCN(Cc3ccccc3)CC2)sc2nc(-c3ccco3)nn12 (configuration not stated),active: 37%
4,Cc1ccc(S(=O)(=O)Nc2nc(O)c(C3=c4ccccc4=NC3=O)s2)cc1,inactive: 75%
5,CCc1ccc(NC(=O)CC2C(=O)N(c3cccc(C)c3)C(=O)N2Cc2cccs2)cc1 (configuration not stated),active: 20%
6,Cc1ccc(OCC(=O)Nc2c(C(=O)c3ccccc3)oc3ccccc23)cc1C,inactive: 92%
7,COc1ccc(CNC(=O)Cn2c(SCC(=O)N(C)c3ccccc3)nc3ccccc32)cc1,inactive: 77%
8,CCCCn1c(=O)n(-c2ccc(Br)cc2F)c(=O)c2c3c(sc21)CN(C(C)=O)CC3,inactive: 68%
9,CCOC(=O)c1noc2nc(C)n(CC(=O)Nc3cc(Cl)ccc3OC)c(=O)c12,inactive: 109%
10,COc1cc(C(=O)Nc2ccc3nn(-c4ccc(F)cc4)nc3c2)cc(OC)c1OC,active: 45%
11,CCOc1ccccc1NC(=O)C(C)Sc1cc(-c2ccccc2)nc(C)n1 (configuration not stated),inactive: 59%
12,Cn1c(=O)cc(SCC(=O)NCc2ccc(F)cc2)c2ccc(Cl)cc21,inactive: 91%
13,COc1ccc(-c2nnc(SCC(=O)Nc3cccc(F)c3)s2)cc1,inactive: 83%
14,COC(=O)C1=CN(C2CC2)C=C(C(=O)OC)C1c1ccsc1,active: 60%
15,O=C1CCN(Cc2ccccc2)C(=S)N1,active: 49%
16,COc1cc(Cl)c(C)cc1NC(=O)CCc1nc2cccnc2n1-c1ccccc1,inactive: 75%
17,CC(=O)Nc1nnc(SCc2cc(=O)c3cc(C)ccc3[nH]2)s1,inactive: 73%
18,CC1=C(C(=O)Nc2ccccc2)C(c2ccccc2)n2nc(-c3ccco3)nc2N1 (configuration not stated),inactive: 77%
19,COc1ccc(NC(=O)Cn2c(SCc3cccc(Cl)c3)nc3ccncc32)c(OC)c1OC,inactive: 57%
20,CCn1c(C(=O)N2CCC(C(=O)N3CCN(c4cccc(C)c4C)CC3)CC2)cc2sccc21,inactive: 55%
21,CC(=O)N=c1cccc(NC(C)=O)n1O,inactive: 103%
22,CCOc1ccc2nc(N3CCN(C(=O)CS(=O)(=O)c4ccc(F)cc4)CC3)sc2c1,inactive: 73%
23,CCN1c2ccccc2-n2cccc2C12CCN(C(=O)Nc1ccccc1C(F)(F)F)CC2,inactive: 102%
